# Laboratory results published in PubChem BioAssay AID652104 (National Center for Advancing Translational Sciences (NCATS), 2013).
# The campaign covered roughly 410,000 compounds. About 7,200 (1.8%) were called active. The shares of active, inactive and inconclusive entries below differ from those in the screen. Calls come from the whole dose curve; as a rule, active = well fitted activation curve with a large enough effect; inconclusive = small, poorly fitted or top-dose-only effect, or another doubt; inactive = no such curve, though single readings can be large or run the other way. Potencies of inconclusive entries are left out as doubtful fits.
# Assay: qHTS of TDP-43 Inhibitors; note: nearly all actives have a fitted effect of over 50% in size; for growth rescue (activation): % of control where 0% means no effect
# Conditions: TDP-43 expressing yeast growth rescue, BacTiter-Glo, 24 h; growth rescue (activation): at 46.1 µM (top of the series) unless noted
# Procedure, shortened: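 Readout is BacTiter-Glo luminescence of cell growth, so inhibitors register as activators. TDP-43-expressing yeast at OD600=0.02 in galactose medium, after raffinose pregrowth to mid-log, were incubated with compound for 24 hr at 30 deg C.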
# Potency is the fitted concentration of half-maximal effect; tags give direction and shape of the fitted curve.
Compound,Potency,growth rescue (activation)
CSc1ccc(S(=O)(=O)N(C)Cc2ccccc2)cc1,"inconclusive [activator, single point]",–
N#CCCCC#Cc1ccc2c(c1)COc1c3ccccc3nn1-2,"inconclusive [activator, single point]",–
O=C(O)c1ccccc1C(=O)NCc1ccccc1,"inconclusive [activator, partial curve, poor fit]",–
CC1(C)CC(CC(=O)O)(c2ccc(F)cc2)CCO1 (centres undefined),–,inactive: 0%
COc1cc2ccccc2cc1C(=O)Nc1ccccc1N1CCCC1,–,inconclusive: 56.3% [activator]
CC1(C(=O)Nc2cnc3ccccc3c2)CCN1C(=O)CCc1ccccc1 (centres undefined),"inconclusive [activator, partial curve]",–
O=C(NCc1ccccc1Cl)c1cc2c(s1)-c1ccc(Cl)cc1SC2,"inconclusive [activator, partial curve, poor fit]",–
CCSc1nc2c([nH]c3ccccc32)c(=O)n1CC,"inconclusive [activator, full curve, poor fit]",–
O=C(CC1N=C2c3ccccc3N=C(SCc3cccc(Cl)c3)N2C1=O)NCc1ccc2c(c1)OCO2 (centres undefined),"inconclusive [activator, full curve]",–
CCC1CCc2sc(C(=O)N(C)CC(=O)Nc3ccc(N4CCOCC4)cc3)cc2C1 (centres undefined),active: 8.91 µM,–
Cc1ccc(C(=O)/C=C/c2ccccc2[N+](=O)[O-])cc1,"inconclusive [activator, partial curve]",–
O/N=C/c1ccccc1OCc1ccc(Cl)cc1,"inconclusive [activator, single point]",–
CCS(=O)(=O)N1Cc2ccccc2CC1C(=O)Nc1ccc(F)c(F)c1F (centres undefined),"inconclusive [activator, partial curve, poor fit]",–
CN(CCOc1ccc(F)cc1)Cc1ccccc1,–,inactive: 8.85%
CCOC(=O)c1sc(=S)n(CC)c1N,"inconclusive [activator, partial curve]",–
Cc1ccc(C(=O)N2CCN(c3ccc(F)cc3)CC2)cc1S(=O)(=O)N1CCCCC1,"inconclusive [activator, partial curve]",–
N#C/C(=C\c1ccc(-c2ccc(C(=O)O)cc2)o1)C(=O)Nc1ccccc1C(=O)O,"inconclusive [activator, full curve, poor fit]",–
CCOC(=O)c1ccc(NC(=O)Cn2cc3c(n2)CCC(C)C3)cc1 (centres undefined),"inconclusive [activator, partial curve]",–
O=C(Nc1ccc(Cl)c(Cl)c1)N1CCSC1c1ccco1 (centres undefined),"inconclusive [activator, single point]",–
COc1ccc(-c2cn(-c3ccc(C)cc3)c(S(=O)(=O)CC(=O)Nc3ccc(F)cc3)n2)cc1,"inconclusive [activator, single point]",–
O=C(NCCN1CCNC1=O)C1CCC(=O)N(Cc2cccc(C(F)(F)F)c2)C1 (centres undefined),–,inactive: -3.68%
COc1ccc(CCc2nc(-c3ccc(-n4cccc4)cc3)no2)cc1,–,inactive: 7.4%
CCOC(=O)c1ccc2c(c1)N(CC(=O)N(C)c1ccccc1)C(=O)c1ccccc1S2,–,inactive: 23.2%

Compound,Potency,growth rescue (activation)
Cc1cccc(-c2cnn(-c3cccc([N+](=O)[O-])c3)c2N)c1,"inconclusive [activator, single point]",–
N#Cc1ccccc1NC(=O)CNc1ccc(Cl)c(C(F)(F)F)c1,"inconclusive [activator, partial curve]",–
O=C(O)c1cc([N+](=O)[O-])c(Nc2cccc3ccccc23)c([N+](=O)[O-])c1,active: 11.2 µM,–
CCc1ccccc1NC(=O)C(=O)NCCCN1CCOCC1,–,inactive: 13.2%
CCOc1ccc(OCCCC(=O)ON=C(N)c2ccccc2Cl)cc1,"inconclusive [activator, full curve]",–
Cc1ccc(C2=NOC(=O)/C2=C\c2ccccc2)cc1,active: 25.1 µM,–
CC(NC(=S)NC(=O)c1ccccc1)c1ccccc1 (centres undefined),"inconclusive [activator, single point]",–
c1ccc(Sc2ncnc3c2oc2ccccc23)nc1,"inconclusive [activator, partial curve]",–
Cc1cccc(N2CCN(C(=O)c3ccc4nc(N5CCCCC5)sc4c3)CC2)c1C,"inconclusive [activator, single point]",–
Brc1ccc(-c2nnc(-c3ccccc3Br)o2)cc1,–,inactive: -20.8%
CCc1ccc(NC(=O)CSC2=Nc3ccccc3C3=NC(CCC(=O)NCc4ccccc4)C(=O)N23)cc1 (centres undefined),–,inactive: -21.2%
CCc1cc2c3c(c(=O)oc2cc1OCC(=O)OC)CCCC3,"inconclusive [activator, single point]",–
C=CCC1c2cccc(C(=O)O)c2C(=O)N1c1ccc(Cl)cc1 (centres undefined),"inconclusive [activator, single point]",–
O=S(=O)(NCCc1csc(-c2ccccc2)n1)c1ccc2c(c1)OCCO2,active: 20 µM,–
O=C(Cn1c(=O)c2cccn2c2cccnc21)NCc1cccc(F)c1,–,inactive: 14.5%
CC(C)=CCOc1c2ccoc2cc2oc(=O)ccc12,"inconclusive [activator, partial curve]",–
CCOC(=O)[C@H]1[C@H]2COc3ccccc3[C@@H]2N2C(=O)c3cc(Cl)ccc3NC(=O)[C@@]12C,"inconclusive [activator, single point]",–
C(=C\c1nc(-c2ccncc2)no1)/c1ccccc1,active: 11.2 µM,–
O=C(N/N=C/c1ccccc1)c1ccc(NC(=O)c2ccc(F)cc2)cc1,"inconclusive [activator, partial curve]",–
Cc1ccc(Cl)cc1NC(=O)COC(=O)C12CC3CC(CC(C3)C1)C2,"inconclusive [activator, partial curve]",–
CCN(CC)c1ncnc2c1ncn2[C@H]1CN(Cc2ccco2)C[C@@H](CO)O1,–,inactive: 7.9%
O=C(Nc1ccc(N2CCN(C(=O)c3ccccc3)CC2)c(Cl)c1)c1ccc(Br)o1,"inconclusive [activator, single point]",–
C=CCC1(C#N)C(SC)=NC2=C(C(=O)CC(C)(C)C2)C1c1ccc(Br)cc1 (centres undefined),–,inactive: -2.16%

Compound,Potency,growth rescue (activation)
CCOn1c(=O)c(=O)n(OCc2ccccc2)c2ccccc21,"inconclusive [activator, partial curve]",–
Cc1ccc(CC(=O)Nc2ccc([N+](=O)[O-])cc2C)cc1,"inconclusive [activator, partial curve]",–
O=C(c1cnn(-c2ccc(F)cc2)c1-n1cccc1)N1CCN(c2ccc(F)cc2)CC1,active: 25.1 µM,–
CCOc1ccc(NC(=O)CC2SC(=O)N(c3ccccc3)C2=O)cc1 (centres undefined),"inconclusive [activator, single point]",–
Cc1cc(C(=O)C(C)Sc2cccc[n+]2[O-])c(C)n1-c1ccc(Cl)cc1 (centres undefined),"inconclusive [activator, partial curve]",–
CC1=C(C(=O)Nc2cccc(Cl)c2C)C2(CCCCCC2)OC1=O,"inconclusive [activator, partial curve]",–
CCOC(=O)C1CCN(C(=O)C(C)Oc2ccc(C(=O)c3ccccc3)cc2)CC1 (centres undefined),"inconclusive [activator, single point]",–
Cc1cc(C)c2c(N)c(C(=O)N3CCN(c4ncccn4)CC3)sc2n1,"inconclusive [activator, single point]",–
O=C(c1ccccc1OCc1ccccc1Br)N1CCN(c2ncccn2)CC1,"inconclusive [activator, single point]",–
O=c1cccccc1NCc1ccccc1,"inconclusive [activator, partial curve]",–
O=C(NCCc1ccccc1)c1nc(-c2ccc(Cl)cc2)n2c1CCCCC2,"inconclusive [activator, partial curve]",–
O=[N+]([O-])c1ccc(N2CCOCC2)cc1NCc1ccccc1,"inconclusive [activator, partial curve]",–
CSc1ccccc1-n1nnnc1SCc1ccccc1,active: 12.6 µM,–
COc1ccc(OC)c(/C=C/C(=O)c2ccc3c(c2)OCO3)c1,"inconclusive [activator, partial curve]",–
CCOC(=O)c1c(C)[nH]c(CCC(=O)Nc2cc(Cl)ccc2OC)c1C,"inconclusive [activator, partial curve, poor fit]",–
O=C(COc1cccnc1[N+](=O)[O-])NCCc1ccc(Cl)cc1Cl,"inconclusive [activator, single point]",–
O=C(CCC(=O)N1CCN(c2ccccc2F)CC1)c1ccc(Cl)s1,"inconclusive [activator, partial curve]",–
CCCc1c(C(=O)NNc2ccc(C)cc2)cnn1-c1ccccc1,"inconclusive [activator, single point]",–
O=C(CN1C(=O)COc2ccc(S(=O)(=O)NC3CCCC3)cc21)Nc1ccc(Cl)cc1F,–,inactive: -3.67%
O=C(COc1ccc(-c2ccccc2)cc1)N/N=C/c1cc(O)ccc1Br,"inconclusive [activator, single point]",–
O=C(Nc1ccccc1N1CCOCC1)c1cccc(F)c1,"inconclusive [activator, partial curve]",–
Cc1cc(N2CCOCC2)nc2ccc(NC(=O)CCC(=O)N3CCN(c4ccccc4)CC3)cc12,–,inactive: 6.9%
N=c1n(CC(=O)c2ccc(Br)cc2)c2ccccc2n1Cc1ccccc1,–,inactive: 7.77%
